# Assay results reported in the supplement of paper PMC10320760.
# The data scatter; read single values as rough.
# B1: Ydj1; a variant is named by its letters at X, in order (parent)
# chain: MVKETKFYDILGVPVTATDVEIKKAYRKCALKYHPDKNPSEEAAEKFKEASAAYEILSDPEKRDIYDQFGEDGLSGAGGAGGFPGGGFGFGDDIFSQFFGAGGAQRPRGPQRGKDIKHEISASLEELYKGRTAKLALNKQILCKECEGRGGKKGAVKKCTSCNGQGIKFVTRQMGPMIQRFQTECDVCHGTGDIIDPKDRCKSCNGKKVENERKILEVHVEPGMKDGQRIVFKGEADQAPDVIPGDVVFIVSERPHKSFKRDGDDLVYEAEIDLLTAIAGGEFALEHVSGDWLKVGIVPGEVIAPGMRKVIEGKGMPIPKYGGYGNLIIKFTIKFPENHFTSEENLKKLEEILPPRIVPAIPKKATVDECVLADFDPAKYNRTRASRGGANYDSDEEEQGGEGVQCXXX
# Variants of: B1
# Test: enrichment factor, frequency at 37 °C / frequency at 25 °C (thermotolerance selection) (ratio); higher = more growth at 37 °C, higher likelihood of farnesylation
# Details: with Saccharomyces cerevisiae ydj1Δ (yWS304); selective temperature 37 °C; reference temperature 25 °C
row,Variant,enrichment factor
1,HRT,0.661
2,HRM,0.987
3,HRY,0.12
4,HRQ,1.12
5,HRN,0.275
6,HRP,0.206
7,HRK,0.0906
8,HRH,0.0971
9,HRV,0.731
10,HRG,0.239
11,HRI,0.291
12,HRR,0.0819
13,HRW,0.0969
14,HRL,0.18
15,HRS,0.1
16,SSA,1.69
17,TSA,1.63
18,WSA,1.49
19,RRN,0.146
20,RRH,0.185
21,RRW,0.117
22,RRY,0.198
23,RRV,0.196
24,RRM,0.108

row,Variant,enrichment factor
1,RRQ,0.129
2,RRK,0.114
3,RRS,0.183
4,RRI,0.11
5,RRT,0.154
6,RRR,0.157
7,RRF,0.129
8,RRL,0.229
9,RRG,0.216
10,RRP,0.0623
11,LSA,1.52
12,NRN,0.17
13,NRP,0.0742
14,NRG,0.126
15,NRS,0.27
16,NRT,0.23
17,NRI,0.152
18,NRY,0.17
19,NRR,0.104
20,NRK,0.247
21,NRV,0.157
22,NRL,0.224
23,NRW,0.134
24,NRQ,0.173

row,Variant,enrichment factor
1,NRM,0.135
2,NRF,0.184
3,NRH,0.181
4,TRP,0.127
5,TRG,0.116
6,TRH,0.133
7,TRF,0.0924
8,TRT,0.0989
9,TRM,0.105
10,TRQ,0.13
11,TRS,0.188
12,TRI,0.153
13,TRN,0.186
14,TRK,0.102
15,TRV,0.167
16,TRR,0.174
17,TRW,0.114
18,TRY,0.139
19,TRL,0.164
20,KRW,0.18
21,KRR,0.186
22,KRH,0.22
23,KRP,0.142
24,KRS,0.0863

row,Variant,enrichment factor
1,KRL,0.147
2,KRK,0.211
3,KRG,0.187
4,KRQ,0.104
5,KRF,0.161
6,KRV,0.159
7,KRI,0.132
8,KRY,0.0738
9,KRT,0.209
10,KRM,0.141
11,KRN,0.0847
12,MRS,0.198
13,MRT,0.16
14,MRP,0.12
15,MRL,0.249
16,MRV,0.194
17,MRG,0.103
18,MRK,0.195
19,MRR,0.172
20,MRH,0.185
21,MRM,0.948
22,MRW,0.105
23,MRY,0.164
24,MRF,0.247

row,Variant,enrichment factor
1,MRI,0.159
2,MRQ,0.228
3,MRN,0.0838
4,MSA,1.58
5,ASA,1.34
6,ISA,1.55
7,ESA,1.11
8,GRI,0.1
9,GRV,0.0877
10,GRR,0.14
11,GRK,0.0374
12,GRM,0.389
13,GRG,0.164
14,GRW,0.149
15,GRT,0.236
16,GRN,0.162
17,GRH,0.178
18,GRQ,0.388
19,GRL,0.111
20,GRY,0.155
21,GRS,0.159
22,GRP,0.0975
23,SRG,0.333
24,SRN,0.179

row,Variant,enrichment factor
1,SRF,0.21
2,SRK,0.107
3,SRP,0.185
4,SRS,0.152
5,SRM,0.281
6,SRL,0.175
7,SRV,0.133
8,SRR,0.146
9,SRY,0.216
10,SRI,0.148
11,SRQ,0.149
12,SRT,0.214
13,SRH,0.123
14,SRW,0.129
15,WRR,0.113
16,WRH,1.06
17,WRS,1.27
18,WRK,0.129
19,WRF,1.36
20,WRL,1.55
21,WRQ,1.62
22,WRV,1.32
23,WRI,1.25
24,WRY,1.52

row,Variant,enrichment factor
1,WRG,1.54
2,WRN,1.32
3,WRM,1.24
4,WRW,1.29
5,WRP,1.47
6,WRT,1.45
7,ERM,0.494
8,ERP,0.0885
9,ERQ,0.716
10,ERR,0.159
11,ERG,0.205
12,ERN,0.0877
13,ERH,0.117
14,ERK,0.276
15,ERT,0.0736
16,ERI,0.214
17,ERS,0.188
18,ERV,0.162
19,ERL,0.139
20,ERW,0.192
21,ERY,0.105
22,PRT,0.15
23,PRI,0.175
24,PRK,0.145

row,Variant,enrichment factor
1,PRH,0.116
2,PRR,0.141
3,PRQ,0.164
4,PRL,0.0961
5,PRY,0.143
6,PRP,0.138
7,PRN,0.17
8,PRF,0.228
9,PRW,0.108
10,PRV,0.0742
11,PRG,0.23
12,PRS,0.145
13,PRM,0.116
14,IRW,0.164
15,IRR,0.17
16,IRF,0.345
17,IRH,0.172
18,IRQ,0.128
19,IRK,0.188
20,IRP,0.124
21,IRT,0.106
22,IRI,0.236
23,IRS,0.115
24,IRN,0.152

row,Variant,enrichment factor
1,IRL,0.187
2,IRG,0.133
3,IRM,0.194
4,IRY,0.13
5,IRV,0.159
6,HSA,2.09
7,FSA,1.55
8,KSA,1.47
9,VRH,0.174
10,VRN,0.149
11,VRV,0.154
12,VRK,0.094
13,VRR,0.158
14,VRT,0.168
15,VRM,0.175
16,VRY,0.17
17,VRP,0.0956
18,VRF,0.583
19,VRS,0.155
20,VRG,0.129
21,VRL,0.199
22,VRI,0.14
23,VRQ,0.251
24,VRW,0.0919

row,Variant,enrichment factor
1,GSA,0.646
2,ARG,0.167
3,ARS,0.142
4,ARQ,0.458
5,ARR,0.113
6,ARL,0.29
7,ARW,0.25
8,ARM,0.904
9,ARH,0.115
10,ARY,0.272
11,ARN,0.239
12,ARP,0.126
13,ARV,0.238
14,ART,0.212
15,ARK,0.138
16,ARI,0.142
17,FRY,0.513
18,FRV,1.55
19,FRM,1.54
20,FRP,1.29
21,FRW,0.328
22,FRI,1.09
23,FRQ,1.94
24,FRS,1.25

row,Variant,enrichment factor
1,FRN,1.32
2,FRL,0.832
3,FRR,0.0914
4,FRK,0.2
5,FRG,1.2
6,FRH,0.442
7,FRT,1.29
8,LRF,0.2
9,LRI,0.169
10,LRY,0.101
11,LRG,0.187
12,LRS,0.138
13,LRV,0.137
14,LRN,0.142
15,LRM,0.242
16,LRR,0.178
17,LRH,0.214
18,LRQ,0.195
19,LRT,0.13
20,LRP,0.18
21,LRK,0.0854
22,LRW,0.149
23,LRL,0.253
24,QRS,0.123

row,Variant,enrichment factor
1,QRY,0.152
2,QRV,0.188
3,QRH,0.203
4,QRP,0.134
5,QRI,0.164
6,QRM,0.333
7,QRN,0.111
8,QRR,0.144
9,QRK,0.178
10,QRW,0.167
11,QRF,0.158
12,QRG,0.156
13,QRL,0.121
14,QRT,0.172
15,QRQ,0.715
16,YSA,2.21
17,DRK,0.145
18,DRN,0.156
19,DRV,0.137
20,DRI,0.135
21,DRP,0.206
22,DRW,0.117
23,DRR,0.13
24,DRT,0.175

row,Variant,enrichment factor
1,DRL,0.219
2,DRH,0.15
3,DRY,0.164
4,DRQ,0.112
5,DRM,0.247
6,DRS,0.134
7,DRG,0.116
8,VSA,2.24
9,CRS,0.134
10,CRY,0.194
11,CRV,0.486
12,CRQ,0.358
13,CRG,0.189
14,CRP,0.172
15,CRF,0.359
16,CRH,0.158
17,CRL,0.266
18,CRN,0.167
19,CRR,0.171
20,CRI,0.169
21,CRK,0.15
22,CRT,0.133
23,CRW,0.183
24,CRM,0.326

row,Variant,enrichment factor
1,RSA,1.41
2,PSA,1.82
3,NSA,1.45
4,YRW,0.261
5,YRS,0.225
6,YRI,0.32
7,YRK,0.144
8,YRP,0.252
9,YRV,0.959
10,YRG,0.367
11,YRH,0.142
12,YRM,1.18
13,YRN,0.57
14,YRT,0.978
15,YRQ,0.706
16,YRF,0.565
17,YRL,0.373
18,YRR,0.095
19,YRY,0.167
20,DSA,0.152
21,CSA,1.29
22,QSA,1.8
